The other results are listed elsewhere or left out. Repeats are few or missing, and single values can be far off.
These compounds were tested on A375 (assay: cell count relative to DMSO control; melanoma cells; higher = more viable cells). Settings: library dose: standard library concentration; 72 h.
`CN1CCN(c2ccc3nc(-c4c(N)c5c(F)cccc5[nH]c4=O)[nH]c3c2)CC1` [Dovitinib] + CC(=O)c1c(C)c2cnc(Nc3ccc(N4CCNCC4)cn3)nc2n(C2CCCC2)c1=O [palbociclib] (first compound 0.5 µM, partner dose 0.2 µM) gave a cell count of 61.7%. For `C[C@@H](Oc1cc(-c2cnn(C3CCNCC3)c2)cnc1N)c1c(Cl)ccc(F)c1Cl` [Crizotinib] + COc1cc(Nc2ncc(F)c(Nc3ccc4c(n3)NC(=O)C(C)(C)O4)n2)cc(OC)c1OC [Tamatinib] (first compound 1 µM, partner dose 2 µM), the cell count was 92.1%. In the case of `C[C@@H](Oc1cc(-c2cnn(C3CCNCC3)c2)cnc1N)c1c(Cl)ccc(F)c1Cl` [Crizotinib] + Cc1cc(N2CCOCC2)cc2[nH]c(-c3c(NC[C@@H](O)c4cccc(Cl)c4)cc[nH]c3=O)nc12 [BMS536924] (first compound 1 µM, partner dose 1 µM), the cell count was 104%. With `CS(=O)(=O)CCNCc1ccc(-c2ccc3ncnc(Nc4ccc(OCc5cccc(F)c5)c(Cl)c4)c3c2)o1` [lapatinib] + COc1ccc(Cl)c(Nc2nc3ccccc3nc2NS(=O)(=O)c2cccc(NC(=O)C(C)(C)N)c2)c1 [XL147] (first compound 4 µM, partner dose 4 µM) the cell count was 111%. `C=CCNC1=C2C[C@@H](C)C[C@H](OC)[C@H](O)[C@@H](C)/C=C(\C)[C@H](OC(N)=O)[C@@H](OC)/C=C\C=C(/C)C(=O)NC(=CC1=O)C2=O` [Tanespimycin] + O=C(Nc1cccc(Cl)c1)Nc1ncc(CCNc2ncnc3ccsc23)s1 [SNS314] (first compound 0.01 µM, partner dose 0.004 µM) gave a cell count of 113%. Work on `CN1CCN(c2ccc3nc(-c4c(N)c5c(F)cccc5[nH]c4=O)[nH]c3c2)CC1` [Dovitinib] + C[C@@H]1CCN(C(=O)CC#N)C[C@@H]1N(C)c1ncnc2[nH]ccc12 [CP690550] (first compound 0.5 µM, partner dose 5 µM) yielded a cell count of 63.3%. Compound `CS(=O)(=O)CCNCc1ccc(-c2ccc3ncnc(Nc4ccc(OCc5cccc(F)c5)c(Cl)c4)c3c2)o1` [lapatinib] + OCCn1cc(-c2cnc3nnn(Cc4ccc5ncccc5c4)c3n2)cn1 [PF04217903] (first compound 4 µM, partner dose 5 µM) has a cell count of 127%. In the case of `C=CCNC1=C2C[C@@H](C)C[C@H](OC)[C@H](O)[C@@H](C)/C=C(\C)[C@H](OC(N)=O)[C@@H](OC)/C=C\C=C(/C)C(=O)NC(=CC1=O)C2=O` [Tanespimycin] + CO[C@@H]1[C@H](N(C)C(=O)c2ccccc2)C[C@H]2O[C@]1(C)n1c3ccccc3c3c4c(c5c6ccccc6n2c5c31)C(=O)NC4 [Midostaurin] (first compound 0.01 µM, partner dose 0.4 µM), the cell count was 89.7%. Compound `CNC(=O)c1cc(Oc2ccc(NC(=O)Nc3ccc(Cl)c(C(F)(F)F)c3)cc2)ccn1` [sorafenib] + Nc1cccc2c1CN(C1CCC(=O)NC1=O)C2=O [lenalidomide] (first compound 2 µM, partner dose 5 µM) has a cell count of 132%. With `C[C@@H](Oc1cc(-c2cnn(C3CCNCC3)c2)cnc1N)c1c(Cl)ccc(F)c1Cl` [Crizotinib] + C=CCNC1=C2C[C@@H](C)C[C@H](OC)[C@H](O)[C@@H](C)/C=C(\C)[C@H](OC(N)=O)[C@@H](OC)/C=C\C=C(/C)C(=O)NC(=CC1=O)C2=O [Tanespimycin] (first compound 1 µM, partner dose 0.01 µM) the cell count was 108%. With `CS(=O)(=O)CCNCc1ccc(-c2ccc3ncnc(Nc4ccc(OCc5cccc(F)c5)c(Cl)c4)c3c2)o1` [lapatinib] + OCc1c[nH]c2ccccc12 [Indole-3-carbinol] (first compound 4 µM, partner dose 4 µM) the cell count was 82.7%. `C=CCNC1=C2C[C@@H](C)C[C@H](OC)[C@H](O)[C@@H](C)/C=C(\C)[C@H](OC(N)=O)[C@@H](OC)/C=C\C=C(/C)C(=O)NC(=CC1=O)C2=O` [Tanespimycin] + Cc1cc(N2CCOCC2)cc2[nH]c(-c3c(NC[C@@H](O)c4cccc(Cl)c4)cc[nH]c3=O)nc12 [BMS536924] (first compound 0.01 µM, partner dose 1 µM) was tested, and the cell count was 94.8%.
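Also: cells treated in 1,536-well plates, then fixed and DAPI-stained, with nuclei counted from automated high-throughput microscope images.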
